At least one read-out could not be matched to a standard name with certainty.
Legend:
[1] = test system: MES-SA and MES-SA/Dx5 cells; assay: Selective toxicity in the presence of the P-gp inhibitor tariquidar; assay type: cell-based, human; conditions: ratio of SR without and with tariquidar (1 μM)
Procedure: In the presence of tariquidar (an inhibitor of P-gp function), the toxicity of the compounds selectively diminishes in multidrug-resistant MES-SA/Dx5 cells, while the toxicity is unchanged against parental MESSA cells, which is reflected by a decrease in the selectivity ratio (SR (TQ)).
To investigate the contribution of P-glycoprotein to the cytotoxic effect of a compound, cell survival was measured in the presence of the P-glycoprotein inhibitor tariquidar (1 μM). Tariquidar (CAS 206873-63-4) can be obtained e.g. from Selleck, Houston, USA.

[2] = test system: MES-SA and multidrug-resistant MES-SA/Dx5 cell line; assay: Selective toxicity (ratio of IC50 in MES-SA to IC50 in MES-SA/Dx5) and activity index; assay type: cell-based, human; conditions: AI = SR/IC50 on the resistant cell line (IC50 in μM)
Source text: Compounds having P-gp potentiated MDR-selective activity can be characterized by their inhibitory concentration (IC) with regard to a specific cancer cell line. Usually the IC value is given at a certain percentage ratio of non-inhibited molecules or surviving cells. For example an IC20 value of a compound on a cell line means that at this inhibitory concentration of the compound 80% of the cells are killed whereas 20% of the cells are still viable. A further characteristic of MDR-selective drugs is the selectivity ratio (SR), which is the ratio of the IC value measured in a non-multidrug resistant cell line to (i.e. divided by) the IC value measured in the corresponding transformed, multidrug-resistant cell line. The inverse value, the resistance ratio (RR) is calculated as the ratio of a compound's IC value against a multidrug resistant cell line divided by the parallel IC value of the same compound against a control non-multidrug resistant cell line. The Activity Index (AI) is calculated here as the ratio of the compound's selectivity ratio (SR) and the compound's IC50 value against the resistant cell. The AI reflects the level of simultaneous toxicity and selectivity towards multidrug-resistant cancer cells.
The human uterine sarcoma cell line MES-SA and its doxorubicin resistant counterpart MES-SA/Dx5 were obtained from ATCC (MES-SA: No. CRL-1976™, MES-SA-Dx5: No. CRL-1977™). MES-SA/Dx5 cells express high levels of P-gp, and therefore are multidrug resistant (MDR). Cells were cultured in DMEM supplemented with 10% FBS, 5 mmol/L glutamine and 50 unit/mL penicillin and streptomycin (Life Technologies).
Cell survival was measured by the PrestoBlue® Cell Viability Reagent (Life Technologies, USA). Cells were seeded in 100 μl medium at a density of 5000 cells/well in 96-well plates; the serially diluted drug was added the following day. Cells were then incubated for 72 hours at 37° C. in 5% CO2; the drug containing medium was removed, and the PrestoBlue® reagent was added according to the manufacturer's instructions. Fluorescence of the cells was measured by a Perkin Elmer EnSpire multimode plate reader or Perkin Elmer Victor X3 microplate reader. Data were background corrected and normalized to untreated cells. Curves were fitted with the help of Prism software using the sigmoidal dose-response model. Curve fit statistics were used to determine IC50 values. Differences between the IC50 values of the respective cell lines were analyzed by two-sided […] unpaired Student's t test and results were considered statistically significant at a P value of <0.05 (*) or 0.01 (**).
Selectivity towards multidrug-resistant cells is expressed as the ratio of the IC50 value measured in the parental MES-SA and multidrug-resistant MES-SA/Dx5 cell line (Selectivity Ratio, SR).
A novel characteristic of the compounds presented in this invention is that they exert their selective cytotoxicity at low IC50 values. Simultaneous toxicity and selectivity towards multidrug-resistant cancer cells is reflected by the Activity Index (AI) of the compounds, which is the ratio of the selectivity ratio (SR) and the IC50 value on the resistant cell line.

Compound	SR/SR (TQ) [1]	Activity Index (AI) [2]
C/C(=N\Nc1ccc2ccc(CN3CCCCC3)c(O)c2n1)c1ccccn1 [Example 3, (E/Z)-7-(Piperidin-1ylmethyl)-2-(2-(1-(pyridin-2-yl)ethylidene)hydrazinyl)quinolin-8-ol]	10.4	
C/C(=N\Nc1ccc2ccc(CN3CCCCC3)c(O)c2n1)c1ccccc1O [Example 4, (E/Z)-2-(2-(1-(2-Hydroxyphenyl)ethylidene)hydrazinyl)-7-(piperidin-1-ylmethyl)quinolin-8-ol]		36.8
Oc1c(CN2CCCCC2)ccc2ccc(N/N=C/c3ccccn3)nc12 [Example 5, (E/Z)-7-(Piperidin-1-ylmethyl)-2-(2-(pyridine-2-ylmethylene)hydrazinyl)quinolin-8-ol]	16.7	
COc1ccc(CNCc2cc(Cl)c3cccnc3c2O)cc1 [Example 7, 5-Chloro-7-(((4-methoxybenzyl)amino)methyl)quinolin-8-ol]	10.3	
COc1ccccc1CNCc1cc(Br)c2cccnc2c1O [Example 8, 5-Bromo-7-(((2-methoxybenzyl)amino)methyl)quinolin-8-ol]		84.2
COc1ccc(CNCc2cc(Br)c3cccnc3c2O)c(OC)c1 [Example 9, 5-Bromo-7-(((2,4-dimethoxybenzyl)amino)methyl)quinolin-8-ol]	11.7	173.0
Oc1c(C2NCCc3ccccc32)cc(Br)c2cccnc12 (stereo not drawn) [Example 14, 5-Bromo-7-(1,2,3,4-tetrahydroisoquinolin-1-yl)quinolin-8-ol]		59.9
O=[N+]([O-])c1cc(C2NCCc3ccccc32)c(O)c2ncccc12 (stereo not drawn) [Example 15, 5-Nitro-7-(1,2,3,4-tetrahydroisoquinolin-1-yl)quinolin-8-ol]	16.5	40.0
COc1cc2c(cc1OC)C(c1cc(Cl)c3cccnc3c1O)NCC2 (stereo not drawn) [Example 16, 5-Chloro-7-(6,7-dimethoxy-1,2,3,4-tetrahydroisoquinolin-1-yl)quinolin-8-ol]	11.7	
COc1ccc(CNCc2cc(Br)c3cccnc3c2O)cc1OC [Example 25, 5-Bromo-7-(((3,4-dimethoxybenzyl)amino)methyl)quinolin-8-ol]	14.0	169.9
COc1ccc(CNCc2cc(Cl)c3cccnc3c2O)c(OC)c1 [Example 26, 5-Chloro-7-(((2,4-dimethoxybenzyl)amino)methyl)quinolin-8-ol]	10.4	135.5
COc1ccc(CNCc2cc([N+](=O)[O-])c3cccnc3c2O)cc1 [Example 27, 7-(((4-Methoxybenzyl)amino)methyl)-5-nitroquinolin-8-ol]	12.8	64.2
COc1ccc(CNCc2cc([N+](=O)[O-])c3cccnc3c2O)c(OC)c1 [Example 28, 7-(((2,4-Dimethoxybenzyl)amino)methyl)-5-nitroquinolin-8-ol]	12.7	44.6
COc1ccc(CNCc2cc([N+](=O)[O-])c3cccnc3c2O)cc1OC [Example 30, 7-(((3,4-Dimethoxybenzyl)amino)methyl)-5-nitroquinolin-8-ol]	14.5	
Cl.Oc1c(CN2CCCC2)ccc2cccnc12 [NSC693871, 7-(pyrrolidin-1-ylmethyl)quinolin-8-ol hydrochloride, reference compound]	3.0	2.9
CCN(CC)Cc1ccc2cccnc2c1O [NSC693872, 7-(N,N-diethylaminomethyl)quinolin-8-ol, reference compound]	1.9	3.1
